This data set deals with human AsPC1 (G12D) pancreatic cancer xenografts. The settings on record: AsPC1 xenograft mice.
[1] abbreviates: 24 h after ~2 nmol probe (80 nmol [111In]DOTA), n = 3.

These results are taken from article PMC5912162 (Bioconjugate chemistry, 2010).

As to `O=C([O-])CN1CCN(CC(=O)[O-])CCN(CC(=O)[O-])CCN(CC(=O)[O-])CC1.[111In+3]` [[^111In]DOTA, reference compound], the “Total %ID/g of control relative to [111In]nKRAS2 PNA probes (times less)” value (24 h, Table 2A) was 26–83 times. Besides, under setting [1], the “K/T (kidney/tumor ratio, tissue distribution)” value was found to be 12.12 ± 3.62; the “T/B (tumor/blood ratio, tissue distribution)” value amounted to 3.18 ± 0.45; the “T/M (tumor/muscle ratio, tissue distribution)” value is reported as 3.40 ± 0.74.
